The values that follow come from PMC12266122.

Sequences of proteins named here, by UniProt entry; tags and fusion partners are left off. A change or cut given only in a name is not applied to a line headed by its entry.
UniProt Q9UHY1: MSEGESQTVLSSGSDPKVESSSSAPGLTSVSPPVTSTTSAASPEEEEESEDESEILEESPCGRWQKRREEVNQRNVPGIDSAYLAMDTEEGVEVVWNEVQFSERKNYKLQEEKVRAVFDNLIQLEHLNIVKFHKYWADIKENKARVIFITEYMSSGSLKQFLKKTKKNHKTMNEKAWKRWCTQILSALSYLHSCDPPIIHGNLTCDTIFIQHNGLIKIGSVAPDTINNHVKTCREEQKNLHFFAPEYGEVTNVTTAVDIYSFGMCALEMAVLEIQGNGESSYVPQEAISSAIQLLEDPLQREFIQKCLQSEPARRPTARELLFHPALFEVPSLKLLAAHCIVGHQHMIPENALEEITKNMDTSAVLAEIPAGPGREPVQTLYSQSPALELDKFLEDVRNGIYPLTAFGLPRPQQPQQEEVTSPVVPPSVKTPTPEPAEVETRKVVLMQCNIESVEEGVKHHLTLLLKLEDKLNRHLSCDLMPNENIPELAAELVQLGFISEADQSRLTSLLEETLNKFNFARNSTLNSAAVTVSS
UniProt Q9H4A3: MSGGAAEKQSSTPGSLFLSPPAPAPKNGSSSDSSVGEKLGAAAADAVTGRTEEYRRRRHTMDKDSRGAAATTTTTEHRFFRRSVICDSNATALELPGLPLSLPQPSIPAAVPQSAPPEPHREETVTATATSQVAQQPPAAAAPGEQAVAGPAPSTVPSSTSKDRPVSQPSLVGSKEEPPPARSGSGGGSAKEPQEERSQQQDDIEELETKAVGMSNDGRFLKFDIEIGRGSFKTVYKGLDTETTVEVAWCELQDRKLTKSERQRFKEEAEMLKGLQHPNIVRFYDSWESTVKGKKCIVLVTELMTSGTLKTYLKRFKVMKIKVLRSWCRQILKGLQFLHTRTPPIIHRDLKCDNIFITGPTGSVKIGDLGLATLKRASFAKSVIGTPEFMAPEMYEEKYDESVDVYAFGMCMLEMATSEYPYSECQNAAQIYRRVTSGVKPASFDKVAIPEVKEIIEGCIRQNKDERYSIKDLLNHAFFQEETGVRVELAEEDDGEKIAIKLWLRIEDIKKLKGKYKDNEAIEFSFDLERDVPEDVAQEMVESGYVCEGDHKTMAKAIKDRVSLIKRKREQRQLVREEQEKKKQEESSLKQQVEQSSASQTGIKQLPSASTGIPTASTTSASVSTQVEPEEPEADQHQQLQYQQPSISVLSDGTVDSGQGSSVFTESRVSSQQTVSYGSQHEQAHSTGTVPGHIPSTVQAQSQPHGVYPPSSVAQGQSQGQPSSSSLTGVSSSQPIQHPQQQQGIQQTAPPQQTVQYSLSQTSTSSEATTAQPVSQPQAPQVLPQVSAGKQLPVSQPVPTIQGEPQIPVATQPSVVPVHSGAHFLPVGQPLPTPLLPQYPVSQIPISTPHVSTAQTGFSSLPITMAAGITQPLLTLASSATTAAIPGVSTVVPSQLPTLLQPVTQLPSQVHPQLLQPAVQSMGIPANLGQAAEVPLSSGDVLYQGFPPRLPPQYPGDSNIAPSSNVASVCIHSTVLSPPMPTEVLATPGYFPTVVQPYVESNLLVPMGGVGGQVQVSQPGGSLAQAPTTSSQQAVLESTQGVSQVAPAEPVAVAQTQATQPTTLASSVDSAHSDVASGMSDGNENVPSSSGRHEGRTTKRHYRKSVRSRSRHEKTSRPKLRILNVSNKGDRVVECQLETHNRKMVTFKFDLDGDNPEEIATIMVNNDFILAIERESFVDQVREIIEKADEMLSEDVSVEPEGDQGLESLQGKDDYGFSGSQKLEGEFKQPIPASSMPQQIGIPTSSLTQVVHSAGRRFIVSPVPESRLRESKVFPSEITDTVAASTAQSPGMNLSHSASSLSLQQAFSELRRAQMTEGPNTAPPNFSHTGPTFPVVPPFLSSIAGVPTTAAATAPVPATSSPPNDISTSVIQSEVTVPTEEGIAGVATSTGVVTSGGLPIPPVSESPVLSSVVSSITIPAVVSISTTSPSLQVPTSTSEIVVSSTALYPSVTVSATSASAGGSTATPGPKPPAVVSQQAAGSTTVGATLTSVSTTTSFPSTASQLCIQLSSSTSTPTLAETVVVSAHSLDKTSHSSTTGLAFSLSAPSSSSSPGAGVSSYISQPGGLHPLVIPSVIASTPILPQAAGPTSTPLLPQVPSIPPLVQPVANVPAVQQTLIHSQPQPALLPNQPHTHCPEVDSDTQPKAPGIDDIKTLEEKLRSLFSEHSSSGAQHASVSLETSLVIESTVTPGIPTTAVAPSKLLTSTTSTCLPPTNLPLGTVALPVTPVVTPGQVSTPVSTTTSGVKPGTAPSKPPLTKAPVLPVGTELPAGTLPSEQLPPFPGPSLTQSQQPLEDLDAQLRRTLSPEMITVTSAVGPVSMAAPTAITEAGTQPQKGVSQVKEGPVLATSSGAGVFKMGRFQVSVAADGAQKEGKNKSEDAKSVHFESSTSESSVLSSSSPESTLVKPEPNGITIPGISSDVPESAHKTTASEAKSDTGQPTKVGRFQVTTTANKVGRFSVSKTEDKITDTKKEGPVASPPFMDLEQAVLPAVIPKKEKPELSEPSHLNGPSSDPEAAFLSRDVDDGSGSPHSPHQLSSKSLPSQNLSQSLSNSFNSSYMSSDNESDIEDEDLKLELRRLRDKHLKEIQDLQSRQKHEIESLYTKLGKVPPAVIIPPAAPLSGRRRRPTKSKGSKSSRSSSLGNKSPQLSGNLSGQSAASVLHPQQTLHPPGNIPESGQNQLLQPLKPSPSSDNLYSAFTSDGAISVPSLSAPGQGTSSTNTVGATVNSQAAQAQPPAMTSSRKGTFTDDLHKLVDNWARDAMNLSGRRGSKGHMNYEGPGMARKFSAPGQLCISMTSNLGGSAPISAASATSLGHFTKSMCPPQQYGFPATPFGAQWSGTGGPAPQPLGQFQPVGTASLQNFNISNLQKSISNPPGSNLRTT
UniProt Q9BYP7: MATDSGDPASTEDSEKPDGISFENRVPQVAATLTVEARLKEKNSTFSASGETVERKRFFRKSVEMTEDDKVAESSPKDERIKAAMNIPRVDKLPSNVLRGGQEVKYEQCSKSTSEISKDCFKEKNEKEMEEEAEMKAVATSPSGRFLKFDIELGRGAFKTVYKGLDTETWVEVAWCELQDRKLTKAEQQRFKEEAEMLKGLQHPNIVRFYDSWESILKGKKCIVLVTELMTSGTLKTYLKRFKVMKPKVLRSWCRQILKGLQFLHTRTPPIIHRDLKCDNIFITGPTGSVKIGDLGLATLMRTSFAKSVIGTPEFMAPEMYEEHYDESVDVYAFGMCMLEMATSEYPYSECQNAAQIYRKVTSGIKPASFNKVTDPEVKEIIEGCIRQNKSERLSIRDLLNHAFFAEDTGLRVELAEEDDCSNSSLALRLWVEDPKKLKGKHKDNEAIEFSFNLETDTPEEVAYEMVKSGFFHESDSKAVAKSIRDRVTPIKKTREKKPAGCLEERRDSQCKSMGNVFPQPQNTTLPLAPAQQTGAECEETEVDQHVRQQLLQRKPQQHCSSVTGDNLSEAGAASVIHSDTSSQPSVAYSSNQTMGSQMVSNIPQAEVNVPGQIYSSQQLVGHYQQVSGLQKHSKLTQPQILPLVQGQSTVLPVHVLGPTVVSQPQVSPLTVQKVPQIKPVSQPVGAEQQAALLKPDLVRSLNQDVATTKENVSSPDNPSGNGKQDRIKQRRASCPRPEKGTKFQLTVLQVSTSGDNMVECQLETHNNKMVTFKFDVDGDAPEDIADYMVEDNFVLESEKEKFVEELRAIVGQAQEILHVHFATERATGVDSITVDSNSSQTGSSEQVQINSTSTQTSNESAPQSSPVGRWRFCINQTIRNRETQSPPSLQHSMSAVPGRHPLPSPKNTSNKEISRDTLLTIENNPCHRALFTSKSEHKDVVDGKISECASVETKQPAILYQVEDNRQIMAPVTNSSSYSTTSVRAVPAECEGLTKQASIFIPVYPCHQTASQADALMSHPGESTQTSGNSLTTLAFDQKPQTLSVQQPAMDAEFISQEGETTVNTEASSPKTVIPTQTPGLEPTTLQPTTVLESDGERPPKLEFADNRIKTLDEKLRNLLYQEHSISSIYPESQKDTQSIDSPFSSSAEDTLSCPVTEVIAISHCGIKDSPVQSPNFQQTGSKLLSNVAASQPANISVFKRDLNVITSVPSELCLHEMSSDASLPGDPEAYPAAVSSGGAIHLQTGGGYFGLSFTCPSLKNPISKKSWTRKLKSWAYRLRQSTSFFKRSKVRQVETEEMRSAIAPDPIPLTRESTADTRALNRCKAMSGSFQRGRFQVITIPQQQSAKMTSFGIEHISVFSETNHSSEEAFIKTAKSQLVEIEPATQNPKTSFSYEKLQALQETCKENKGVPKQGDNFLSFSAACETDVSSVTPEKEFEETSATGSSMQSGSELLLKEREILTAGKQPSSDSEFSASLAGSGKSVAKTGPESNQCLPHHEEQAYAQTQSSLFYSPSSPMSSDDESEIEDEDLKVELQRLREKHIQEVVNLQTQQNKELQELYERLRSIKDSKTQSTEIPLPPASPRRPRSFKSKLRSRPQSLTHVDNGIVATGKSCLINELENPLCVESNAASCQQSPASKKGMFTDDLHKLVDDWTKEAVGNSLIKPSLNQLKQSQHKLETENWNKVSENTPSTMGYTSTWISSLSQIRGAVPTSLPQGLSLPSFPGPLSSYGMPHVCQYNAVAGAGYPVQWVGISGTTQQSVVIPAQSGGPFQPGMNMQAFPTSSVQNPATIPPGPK

Results are given in words; binding and its absence hold for the method and conditions named. Binding seen in cells or lysates may run through a third protein. Some binding calls cover weakened binding; strength is not graded here. For some of these results: Sequences can lack the tags named with a protein.

Assay [1] addresses NRBP1 in HEK293 cells (fig. S8D) (human) (UniProt Q9UHY1). In words: co-IP; WNK1 (1 to 661) and NRBP1 in HEK293 cells (fig. S8D).
Assay [2] deals with GFP-NRBP1 (N-terminal GFP knock-in at the endogenous NRBP1 locus) (human (endogenous in HEK293)) (UniProt Q9UHY1). Nature of the assay: co-IP; GFP-NRBP1 KI HEK293 cells with or without 0.5 M sorbitol (1 to 30 min; WNK inhibitors in Fig. 4F); immunoprecipitation with GFP nanobody beads; immunoblot of endogenous partners (Figs. 4E,F, 7C, fig. S5A). (In general: Immunoblotting shows a protein as a band on a membrane.)

Assay [3] concerns the target T1, GFP-TSC22D4 full-length (FL) WT (human) (UniProt Q9Y3Q8).
T1 sequence: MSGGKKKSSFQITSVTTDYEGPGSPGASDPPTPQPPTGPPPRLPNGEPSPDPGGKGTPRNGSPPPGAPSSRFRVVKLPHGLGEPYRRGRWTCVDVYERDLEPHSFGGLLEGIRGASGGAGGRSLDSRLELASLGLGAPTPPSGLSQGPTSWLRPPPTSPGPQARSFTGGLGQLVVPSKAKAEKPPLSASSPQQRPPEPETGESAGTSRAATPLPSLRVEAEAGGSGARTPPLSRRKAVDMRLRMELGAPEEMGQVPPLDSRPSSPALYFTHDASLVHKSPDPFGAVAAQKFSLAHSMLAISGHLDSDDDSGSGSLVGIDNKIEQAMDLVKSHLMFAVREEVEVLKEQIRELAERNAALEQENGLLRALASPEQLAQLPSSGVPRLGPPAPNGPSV
Nature of the assay: co-IP; HEK293 co-transfected with GFP-TSC22D2 WT (fig. S3B: TSC22D4) and HA-NRBP1 WT or mutants for 36 hours; GFP immunoprecipitation; HA immunoblot, densitometry (Fig. 3D).

On to “WNK1 fragment comprising the kinase domain (residues 1 to 661), expressed in HEK293 cells (from UniProt Q9H4A3 1-661) (domain or fragment)”, for which, in assay [1], the binding entry was “binds”.

Take “WNK3, endogenous (from UniProt Q9BYP7 1-1800)”: the binding result in assay [2] was “binds”.

In the case of HA-NRBP1 WT (from UniProt Q9UHY1 1-535), in assay [3], the binding entry is reported as “binds”.

For the substance “WNK1, endogenous (from UniProt Q9H4A3 1-2382)”, the binding result in assay [2] was “binds”.
